The values below come from PubChem BioAssay AID488969 (Vanderbilt High Throughput Screening Facility, 2010).

SMILES strings stand for the structures. Over roughly 110,000 compounds, “z-score” has its median near -0.1; the highest 2% begin near 2. The list shows a part of the results. Activity calls are given as the source filed them.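 The calls were made as follows: active = z-score in the third read window above 3 or below -3; inactive = the rest.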

For this test, the target named is Metabotropic glutamate receptor 8 (Rattus norvegicus) (UniProt P70579). Briefly: mGluR8 Gi/Go-coupled signaling modulation – cell-based, rat, thallium flux, HTS, primary screen (AID 488969). The following applies: HEK293 rat mGluR8, GIRK (G protein-gated inwardly rectifying potassium channel) thallium flux, FluoZin2; at 10 µM; stronger effect = higher value; submaximal glutamate (EC20) added with thallium.
UniProt P70579, sequence (P70579 whole entry, looked up): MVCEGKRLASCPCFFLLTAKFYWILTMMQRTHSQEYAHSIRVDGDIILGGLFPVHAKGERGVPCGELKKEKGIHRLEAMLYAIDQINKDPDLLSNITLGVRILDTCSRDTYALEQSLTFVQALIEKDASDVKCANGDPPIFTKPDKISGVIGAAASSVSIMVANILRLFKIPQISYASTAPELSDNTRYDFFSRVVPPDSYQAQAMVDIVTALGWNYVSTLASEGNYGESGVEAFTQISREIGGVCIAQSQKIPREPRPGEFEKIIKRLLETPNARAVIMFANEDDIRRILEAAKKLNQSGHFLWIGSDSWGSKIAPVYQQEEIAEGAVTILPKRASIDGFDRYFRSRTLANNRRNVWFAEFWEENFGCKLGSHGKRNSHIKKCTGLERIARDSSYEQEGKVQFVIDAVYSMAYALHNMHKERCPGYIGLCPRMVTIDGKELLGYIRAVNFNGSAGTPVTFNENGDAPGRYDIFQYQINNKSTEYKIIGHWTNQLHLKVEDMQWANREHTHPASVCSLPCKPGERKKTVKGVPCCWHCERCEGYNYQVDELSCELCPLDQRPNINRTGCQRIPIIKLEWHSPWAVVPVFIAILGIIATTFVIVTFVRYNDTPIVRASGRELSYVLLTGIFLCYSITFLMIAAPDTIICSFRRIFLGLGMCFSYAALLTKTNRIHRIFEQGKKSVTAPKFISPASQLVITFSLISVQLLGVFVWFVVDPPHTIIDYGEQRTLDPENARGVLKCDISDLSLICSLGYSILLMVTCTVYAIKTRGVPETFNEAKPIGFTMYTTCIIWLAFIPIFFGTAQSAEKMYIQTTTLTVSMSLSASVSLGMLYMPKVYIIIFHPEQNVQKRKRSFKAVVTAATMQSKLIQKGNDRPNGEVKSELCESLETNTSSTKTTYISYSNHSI
With `COC(=O)c1ccc(NC(=O)c2ccc(C)cc2)o1`, the z-score was -0.057.

Regarding `Cc1cccc(NC(=S)N2CCN(c3cc(C)ccc3C)CC2)c1`, the z-score was 0.0636.

As to `COc1ccc(/C=N/NC(=O)CCc2nc3ccccc3[nH]2)cc1`, the z-score is -0.286.

`Cn1c(SCC(=O)N/N=C/c2ccc([N+](=O)[O-])s2)nnc1-c1ccc(Cl)cc1` had a z-score of -0.571.

In turn, `Cc1cc(C)n(-c2cc(N3CCN(C(=O)c4ccc(C(C)(C)C)cc4)CC3)ccc2[N+](=O)[O-])n1` came in with a z-score of -0.687.

The compound `CC(=O)NCc1ccc(-c2csc(N)n2)s1` yielded a z-score of 0.445.

On to `CCOC(=O)c1cnn(Cc2ccccc2)c1N`, for which the z-score is -0.0923.

The compound `CCC(C)(C)C1CCc2c(sc(NC(=O)c3ccoc3C)c2C(N)=O)C1` (stereo not given) registered a z-score of -0.179.

For the compound `Cc1cc(NC(=O)CSc2nccn2-c2ccc(Cl)cc2)no1`, the z-score was 0.0698.

Regarding `Cc1c(NCc2nc3ccccc3[nH]2)c(=O)n(-c2ccccc2)n1C`, the z-score was 0.0464.

In the case of `O=C(Nc1ccccc1)O/N=C/c1ccccc1Cl`, the z-score is 0.549.

`CN(c1ccc(C(=O)NCCSCc2ccccc2)cc1)S(=O)(=O)c1ccccc1` returned a z-score of -0.384.

On to `COc1ccc(N2CCN(c3oc(-c4ccc(OC)c(OC)c4)nc3C#N)CC2)cc1`, for which the z-score stood at 0.693.

`Fc1ccccc1N1CCN(c2cnc3ccccc3n2)CC1` had a z-score of 0.211.

For the compound `O=C(CSc1ncnc2c1oc1ccccc12)Nc1ccc2c(c1)OCCO2`, the z-score turned out to be 0.128.

In turn, `COc1cccc(-c2nnc3sc(C4CCCCC4)nn23)c1` displayed a z-score of -0.229.

Regarding `Cc1cc(OCCN2CCCC2)ccc1C(C)C`, the z-score is 1.23.

With `O=C(NC(=S)Nn1cnc2c(cnn2-c2ccccc2)c1=O)c1ccc(Cl)cc1`, the z-score turned out to be 0.0584.

`COc1cccc(CNc2cccc3cccnc23)c1O` had a z-score of 0.672.

In turn, `C=CCN(CC=C)S(=O)(=O)c1ccc(NC(=S)NC(=O)c2ccc(-c3ccccc3)cc2)cc1` came in with a z-score of -0.107.

Turning to `COc1ccc([N+](=O)[O-])cc1NC1CCCCC1`, the z-score is -0.0473.

`CCC(NC(=O)c1cccc(Cn2nc(C)c([N+](=O)[O-])c2C)c1)c1ccc(C(C)C)cc1` (stereo not given) yielded a z-score of -0.524.

The compound `CCCCOc1ccc(C(C)NC(=O)CCS(=O)(=O)Cc2ccccc2F)cc1` (stereo not given) gave a z-score of -0.246.

With `c1ccc(CN2CCN(c3ncnc4c3[nH]c3ccccc34)CC2)cc1`, the z-score was -0.972.

`CC(=O)Nc1ccc(NC2(C)C(=O)c3ccccc3C2=O)cc1` yielded a z-score of -0.426.

`COC(=O)CNC(=O)C1CCN(C(=O)OCc2ccccc2)CC1`: the z-score is -0.0732.

The compound `N#C/C(=C/c1ccc(CNS(=O)(=O)c2ccccc2)o1)C(N)=O` registered a z-score of -1.94.

In turn, `CCCN1CCC(NC(=O)Nc2ccccc2C(=O)OC)CC1` registered a z-score of -0.336.

`COc1cc(S(=O)(=O)N2CCCC3(CCCCC3)C2)ccc1-n1cnnn1` came in with a z-score of 0.577.

`CCn1nccc1C(=O)Nc1ccc(Cl)cc1Cl` had a z-score of -0.1.

In turn, `CSc1ccccc1C(=O)NCC1CCCO1` (stereo not given) had a z-score of 0.131.

`CC(C)(C)c1ccc(-c2nnc(SCCN3C(=O)c4ccccc4C3=O)o2)cc1` had a z-score of 0.012.

On to `COc1cc(-n2c(C)nc3cc(C(=O)N4CCOCC4)ccc32)cc(OC)c1OC`, for which the z-score was -0.458.

`Cc1ccc(NC(=O)CCNC(=O)c2ccco2)cc1`: the z-score is -0.441.

With `Cc1cccc(Cn2c(N3CCc4ccccc4C3)nc3c2c(=O)[nH]c(=O)n3C)c1`, the z-score is -0.576.

With `CN(C(=O)COC(=O)C(Cc1ccccc1)NC(=O)c1ccccc1)c1ccccc1` (stereo not given), the z-score is -0.597.

`Cc1cc(Cl)c(S(=O)(=O)N2CCN(c3ccccc3)CC2)cc1OCC(N)=O` had a z-score of 0.194.

Compound `Brc1ccc(-c2nnc(-c3cccc(Br)c3)o2)cc1` showed a z-score of -0.0484.

`CCC(=O)Nc1ccc(C(=O)OCc2ccc(Cl)c(Cl)c2)cc1` gave a z-score of -0.236.

`O=C(/C=C/Nc1ccc(F)cc1Br)c1ccccc1` showed a z-score of -0.125.

For `O=C1c2[nH]nc(-c3ccccc3O)c2C(c2ccccc2F)N1Cc1ccco1` (stereo not given), the z-score was -0.966.

As to `CCc1cc2c(=O)c(-c3cscn3)coc2c(CN(C)C)c1O`, the z-score was -0.0987.

For the compound `CN(C)c1ccc(N=Nc2ccccc2C(=O)OCC(=O)NCC2CCCCC2)cc1`, the z-score is -0.149.

With `CC(=O)c1c(C)[nH]c(C(=O)OCC(=O)NCCc2ccc(Cl)cc2)c1C`, the z-score is -0.0247.

The compound `O=C(NNC(=S)NC(=O)c1ccccc1[N+](=O)[O-])c1ccccc1` gave a z-score of 0.138.

As to `O=C(Oc1ccc(-c2nccc(-c3ccccn3)n2)cc1)c1cccc(C(F)(F)F)c1`, the z-score is -0.0661.

With `CC(=O)N1c2ccccc2C(C)(C)C2CCC(C)CC21` (stereo not given), the z-score was -0.247.

In turn, `CCCOc1ccccc1N/C(=N/c1nc(C)cc(C)n1)NC(=O)Nc1ccc(Cl)cc1` registered a z-score of -0.381.

`Cc1ccc(N/N=C(\C#N)C(=N)N2CCOCC2)cc1` showed a z-score of 0.0551.

`Cc1ccc(NC(=O)CSc2ccccc2NC(=O)c2ccccc2Cl)cc1Cl`: the z-score came out at 0.0238.

Compound `COc1ccc(C2c3c(ccc4ccccc34)Oc3ncn4nc(-c5ccco5)nc4c32)cc1` (stereo not given) registered a z-score of -0.325.

Consider `CC1CC1C(=O)OCC(=O)NCc1ccc(Cl)cc1` (stereo not given), for which the z-score was -0.151.

In turn, `O=C(c1ccc(F)cc1)C1CCN(C(=O)Nc2ccc(F)cc2)CC1` displayed a z-score of 0.764.

Compound `O=C(NCCc1ccc(Cl)cc1)c1cccnc1` yielded a z-score of 0.268.

`CC1Cc2nc(SCC(=O)NCC3CCCO3)n(Cc3ccccc3)c(=O)c2S1` (stereo not given) registered a z-score of 0.0446.

`CCNS(=O)(=O)c1ccc2nc(NC(=O)c3cccnc3)sc2c1` gave a z-score of 1.17.

As for `CC(=O)N1CCN(C(=S)c2ccc(N(C)C)cc2)CC1`, the z-score is -1.33.

For `CCOC(=O)/C=C1\SCC(=O)N1CC(=O)Nc1ccc2c(c1)CCC2`, the z-score was determined as 0.245.

`Cc1noc(/C=C/N(C)C)c1S(=O)(=O)N1CCCC(C(=O)NCc2ccc(Cl)cc2)C1` (stereo not given) came in with a z-score of -0.29.

`Cc1cccc(NC(=O)CSc2nc3c(oc4ccccc43)c(=O)n2-c2ccccc2)c1` registered a z-score of 0.449.

With `CCC(=O)Nc1ccc(-c2nnc(SCC(=O)NCC3CCCO3)n2C)cc1` (stereo not given), the z-score is -0.274.

The compound `Cc1ccc(C(=O)/C=C2\NCC(C)NC2=O)cc1` (stereo not given) had a z-score of 0.338.

`CC(C)=C1C2CCC1C1C(=O)N(NC(=O)COc3ccc(Cl)c(C)c3)C(=O)C21` (stereo not given) had a z-score of -0.481.

As to `COc1ccc(CNC(=O)c2cnn3c(C(F)F)cc(C)nc23)cc1`, the z-score was determined as 0.456.

`COC(=O)C(C)Oc1ccc(-c2nccc(-c3cccs3)n2)cc1` (stereo not given) registered a z-score of -0.201.

As for `O=C1CC(N2CCN(c3ccccc3Cl)CC2)C(=O)N1c1ccccc1` (stereo not given), the z-score was -0.24.

Consider `CCCN(c1ccc(C(C)C)cc1)S(=O)(=O)c1c(C)noc1C`, for which the z-score amounted to 0.356.

As to `Cc1c(NC(=O)COC(=O)c2ccc[nH]c2=O)c(=O)n(-c2ccccc2)n1C`, the z-score is -0.172.

The compound `Cc1cc(C)cc(N=Cc2[nH]c3ccc(Br)c(Cl)c3c2O)c1` returned a z-score of -0.078.

In turn, `CCCCn1c(=O)[nH]c2nc3cc(N)ccc3nc2c1=O` had a z-score of -0.557.

Compound `COC(=O)c1c(NC(=O)c2ccc(C)cc2)sc(Cc2ccccc2)c1C` displayed a z-score of 0.935.

For `CC(C)OP(=O)(c1ccccc1)c1ccccc1`, the z-score is -0.264.

In turn, `CCOC(=O)C1C(C)=CC(=O)CC1c1ccco1` (stereo not given) registered a z-score of -0.0303.

On to `CC(C)=C1C2CCC1C1C(=O)N(c3ccc(C)c(C)c3)C(=O)C21` (stereo not given), for which the z-score was -0.284.

`Cc1ccc(C(c2nnnn2CCc2ccccc2)N2CCC(C)CC2)cc1` (stereo not given) displayed a z-score of -0.365.

Compound `CCOCCCNC(=O)c1ccc(OC)cc1` returned a z-score of -0.0294.

Turning to `CCC1(CC)NC(=O)NC1=O`, the z-score is -0.161.

For `CCN1C(=O)CC(N2CCC(C(=O)N3CCOCC3)CC2)C1=O` (stereo not given), the z-score is -0.151.

Regarding `O=C(COc1ccc(S(=O)(=O)NC2CCCCC2)cc1)N1CCN(c2cccc(Cl)c2)CC1`, the z-score was determined as 0.0292.

Regarding `N#C/C(=C(/O)C(Cl)c1ccccc1)c1nc2ccccc2s1` (stereo not given), the z-score is -0.476.

The compound `Cn1c(=O)c2c(=O)cc(NNC(=O)C(C)(C)C)[nH]c2n(C)c1=O` came in with a z-score of -0.232.

Turning to `COC(=O)c1ccc(COc2ccc(/C=C(\C#N)c3nc4ccccc4[nH]3)cc2OC)o1`, the z-score was -0.106.

The compound `COC(=O)c1ccccc1NC(=O)C(C)NS(=O)(=O)c1ccc(OC)cc1` (stereo not given) showed a z-score of 0.0602.

With `C/C(=N\NC(=O)CSc1nc(C)cc(C)n1)c1cccs1`, the z-score was -0.111.

Take `C=CCNC(=S)NNC(=O)C(CCCC)CC(C)(C)O` (stereo not given): the z-score came out at 0.000994.

Consider `COc1cccc2sc(Nc3nc(-c4ccccn4)cs3)nc12`, for which the z-score is active: 5.31.

The compound `CCCCN=C1NC(=O)C(CC(=O)Nc2ccc(Cl)cc2)S1` (stereo not given) gave a z-score of -0.199.

The compound `O=C(CSc1nc2ccccc2c(=O)n1-c1ccccc1)N1CCCC1` displayed a z-score of -0.689.

Turning to `COc1cc2[nH]c(=O)n(CCC(=O)N3CCN(c4cc(Cl)ccc4C)CC3)c(=O)c2cc1OC`, the z-score was -0.0849.

As to `COc1ccc(S(=O)(=O)Nc2nc3ccccc3nc2NCc2ccc3c(c2)OCO3)cc1`, the z-score is -0.2.

The compound `O=C(c1nc2nc(-c3ccccc3)cc(C(F)(F)F)n2n1)N1CCCCC1` yielded a z-score of -0.137.

Turning to `COc1ccc(-c2nc(N)n(C(=O)Cc3ccccc3)n2)cc1`, the z-score was 0.283.

The compound `C=CCOC(=O)C1=C(C)NC(=S)NC1c1cccs1` (stereo not given) gave a z-score of -0.36.

`N#CCCSCc1ccc(C(=O)O)o1` gave a z-score of -0.113.

For `N#CC1=C(N)Oc2cc(O)ccc2C1c1ccncc1` (stereo not given), the z-score was -1.06.

In turn, `O=C1CCN(S(=O)(=O)c2ccccc2)N1` yielded a z-score of -0.131.

As for `CC(C)NS(=O)(=O)c1ccc(NC(=S)NC(=O)c2ccc(-c3ccccc3)cc2)cc1`, the z-score was -0.0819.

As to `N#Cc1ccc(Oc2cccc(C(=O)O)c2)cc1C#N`, the z-score is 0.43.

`CCn1c(COc2ccc(=O)n(-c3ccccc3)n2)nnc1SCc1cccc(OC)c1` yielded a z-score of -0.259.

In turn, `CCCCCCCSc1nc(N)cc(=O)[nH]1` yielded a z-score of -0.237.

With `O=C(COC(=O)c1cnccn1)Nc1ccc(Cl)cc1`, the z-score is 0.892.

As for `COc1ccc(OCc2cnc(Cl)s2)cc1`, the z-score is -0.195.

For `CCOc1ccccc1C1CC(=O)NC2=C1C(=O)CC(C)(C)C2` (stereo not given), the z-score is -0.35.

Compound `CN(C)C(=O)/C(C#N)=C\c1cc(Br)c(Sc2ccc(Cl)cc2)o1` displayed a z-score of -0.407.

`Cc1nc2ccccc2c(=O)n1NC(=O)c1c(O)c2c(n(CC(C)C)c1=O)CCCC2` registered a z-score of -1.28.

Compound `CCCCn1c(=O)[nH]c(=O)c2c1ncn2Cc1ccco1` showed a z-score of -0.249.

`COc1cc(-c2cc(C(=O)OCC(=O)Nc3ccc4c(c3)OCO4)c3ccccc3n2)cc(OC)c1OC`: the z-score is -0.304.

Turning to `O=C(CSCc1ccc([N+](=O)[O-])cc1)Nc1ccc(S(=O)(=O)N2CCCCCC2)cc1`, the z-score was 0.0337.

The compound `Cn1c(=O)c2c(nc(NCCCN3CCOCC3)n2Cc2cccc(Cl)c2)n(C)c1=O` came in with a z-score of -0.133.

In turn, `COc1ccc(/C=C/C(=O)OCC(=O)Nc2cccc(C(C)=O)c2)cc1` showed a z-score of 1.31.
